{"source": "the supplement of paper PMC8277577", "note": "Recombinant human monoclonal antibodies (heavy:light variable regions). ELISA EC50 on the named antigen, from 10 µg/ml down; lower = stronger. No active / inactive call.", "data": [{"molecular_target": "SARS-CoV-2 Wuhan-Hu-1 spike receptor-binding domain", "test": "ELISA binding EC50; higher = weaker binding; ELISA of recombinant human antibody on coated antigen, from 10 µg/ml in fourfold dilutions; four-parameter fit.", "units": {"ELISA binding EC50": "ng/mL"}, "values": [{"binder": "C1063 (protein) chain 1: EVQLVQSGAEVKKPGESLKISCKGYGNSFNNYWIAWVRQMPVKGLEWMGVINPGDSDTRYSPSFQGQVTISVDKSISTAYLQWSSLKASDTAMYYCARTWSPAAVAFFDSWGQGTLVTVS chain 2: NFMLTQPHSVSESPGKTVTISCTRSSDSIGSNYVQWYQQRPGSSPTIVIYEDSQRPSGVPHRFSGSFDSSSNSASLTISGLKTEDEADYYCQSWDSGNLVFGGGTKLTVL", "ELISA binding EC50": 3.04}, {"binder": "C1068 (protein) chain 1: QVQLVESGGGVVQPGRSLRLSCAASGFTFSTFAMHWVRQAPGKGLEWVAVTSYDGSNKYYADSVKGRFTISRDNSKNTLYLQMNSLRAEDTAVYYCARGLLWFGESEYFQHWGQGTLVTVSS chain 2: not shown", "ELISA binding EC50": 2.48}, {"binder": "C1050 (protein) chain 1: EVQLVESGGGLVQPGRSLRLSCAASGFTFDDYGMHWVRQAPGKGLEWVSGISWNGDSIGYADSVKGRFTISRDNAKTSLYLQMNRLRAEDTALYYCAKAASRSTRIGGAFDIWGQGTMVTVSS chain 2: QSALTQPASVSGSPGQSITISCTGTSSDVGGYNLVSWYQQHPGKAPKLMIYEGSKRPSGVSNRFSGSKSGNTASLTISGLQAEDEADYYCCSYAYSFTNVFGTGTKVTV", "ELISA binding EC50": 2.78}, {"binder": "C1051 (protein) chain 1: EVQLVESGGGLVQPGRSLRLSCVASGFTFDDYGLHWVRQAPGKGLEWVSGISWNSDSIGYADSVKGRFAISRDNARTSLYLQMNRLRAEDTALYYCAKAASRSTRIGGAFDIWGQGTMVTVSS chain 2: QSALTQPASVSGSPGQSITISCTGTSSDVGGYNLVSWYQQYPGKAPKLMIYEDSKRPSGVSHRFSGSKSGNTASLTISGLQAEDEADYYCCSYAFSFTNVFGTGTKVTV", "ELISA binding EC50": 1.4}, {"binder": "C1060 (protein) chain 1: EVQLVESGGDLVQPGGSLRLSCAASEIIVSRNYMNWVRQAPGKGLEWVSIIYSGGSTFYGDSVKGRFTISRDSSKNTLYLQMHGLRVEDTAIYYCARSYGDYYIDYWGQGTLVTVSS chain 2: DIQMTQSPSSVSASVGDRVTITCRTSQSISTSLAWYQQKPGKAPKLLIYAASSLQRGVPSRFSGTGSGTDFTLTISSLQPEDFATYYCQQSSSSPPLFTFGPGTKVDIK", "ELISA binding EC50": 2.67}, {"binder": "C1048 (protein) chain 1: EVQLVQSGAEVKKPGESLKISCKVSGYSFISHWIGWVRQMPGKGLEWMGIIYPGDSDTRYSPSFQGQVTISADKSISTAYLQWSSLKASDTAMYYCARRGASWELDYWGQGTLVTV chain 2: QSVLTQPPSASGTPGQRVTISCSGSSSNIGSNPVSWYQQLPGPAPQLLIYGNDQRPSGVPDRFSGSKSGTSASLAISGLQSEDEADYYCAAWDDSLNGYVFGTGTKVTVL", "ELISA binding EC50": 2.41}, {"binder": "C1049 (protein) chain 1: EVQLVQSGAEVKKPGESLKISCKSSGYSFISHWIGWVRQMPGKGLEWMGIIWPGDSDTRYSPSFQGQVTISVDKSITTVYLQWSSLKAADTAMYYCARRGSSWEVDYWGQGTLVTVSS chain 2: not shown", "ELISA binding EC50": 2.81}, {"binder": "C855 (protein) chain 1: QVQLVESGGGVVQPGRSLRLSCAASGFAFSTYGMHWVRQTPGKGLAWVAAISYDGRNTYYGDSVKGRFTITRDNSKNTLYLQLNSLRDEDTALYYCARDATMITLVRGIMGPPFDHWGQGSLVTVSS chain 2: not shown", "ELISA binding EC50": 2.73}, {"binder": "C1067 (protein) chain 1: QVQLVQSGAEVKKPGASVKVSCKASRDTFTTHYIHWVRQAPGQGLEWMGIINPSGGSISYAQKFQGRVTMTRDTSTSTVYMELSSLRSEDTAVYYCARGGIVPHLSNWFDPWGQGTLVTVSS chain 2: EIVLTQSPGTLSLSPGERATLSCRASQSVSSSYLAWYQQKPGQAPRLLIYGASSRATGIPDRFTGSGSGTDFTLTISRLEPEDFAVYYCQQYGRSSGFTFGPGTKVDIK", "ELISA binding EC50": 2.93}, {"binder": "C1066 (protein) chain 1: EVQLVESGGGLVQPGRSLRLSCAASGFMFDDYAMHWVRQAPGKGLEWVSGINWSSADIGYVDSVKGRFTISRDNAKNSLYLQMNSLRTEDTAFYYCAKGWFGELLGGSDSWGQGTLVTVSS chain 2: QLVLTQSSSASASLGSSVKLTCTLNSGHSSYIIAWHQQQPGKAPRYLMKLEGSGSYNKGSGVPDRFSGSSSGADRYLTISNLQFEDEADYYCATWDSNTQVFGGGTKLTVL", "ELISA binding EC50": 3.01}, {"binder": "C1057 (protein) chain 1: QVQLVQSGAEVKKPGSSVKVSCKASGGTFTTYIISWVRQAPGQGLEWMGGISPMLGTANYAQKFQGGVTITADESTTTAYMEMSGLRSEDTAVYYCARAHMYCSDGSCYRQSGYFDSWGQGTLVTVSS chain 2: QSALTQPRSVSGSPGQSVTITCTGTSSNVGGYKYVSWFQQHPGKAPKFLIYDVSERSSGVPDRFSGSKSGNTASLTISGLQAEDEADYYCCSYAGKYTVVFGGGTRLTV", "ELISA binding EC50": 2.12}, {"binder": "C1053 (protein) chain 1: EVQLLESGGGLVQPGGSLRLSCAASGFTFSSYAMNWVRQAPGKGLEWVSAISGSGGGTYYADSVKGRFTISRDNSKNTLYLQMDSLRAEDTAVYYCAKDVPIEQQLVPTFDYWGQGALVTVSS chain 2: DIQMTQSPSSLSASVGDRVTITCRASQSISRYLNWYQQKPGKAPKLLIYGASSLQSGVPSRFSGSGSGTDFTLTISSLQPEDFATYWCQQSYSTLSITFGQGTRLEIK", "ELISA binding EC50": 4.13}, {"binder": "C1062 (protein) chain 1: EVQLVESGGGLVQPGGSLRLSCAASGFTFSNYDMHWVRQTTGKGLEWVSAIGTAGDTYYPGSVKGRFTMSRENAKNSLYLQMNSLRAGDTAVYYCARGGLQTTTWLFDNWGQGTLVTVSS chain 2: DIQMTQSPSSLSASVGDRVTITCRASQTISRYLNWYQQKPGKAPKLLIYAASSLQSGVPSRFSGSGSGTDFTLTISSLQPEDFATYYCQQSYTMPPITFGQGTRLEIK", "ELISA binding EC50": 2.61}, {"binder": "C1054 (protein) chain 1: EVQLLESGGGLVQPGGSLRLSCVVSGFTFSSYAMNWVRQAPGKGLEWVSVIGGSGDGRYYADSVKGRFTISRDNSKNTLYLQMNSLRGDDTAVYYCARDVPVEQQLVPTFDYWGQGTLVTVSS chain 2: DIQMTQSPSSLSASVGDRVTITCRASQSISRYLNWYQQKPGKAPKLLIYAASSLQSGVPSRFSGSGSGTEFTLTISSLQPEDFATYYCQQSYSTLSITFGQGTRLEIK", "ELISA binding EC50": 1.64}, {"binder": "C1061 (protein) chain 1: EVQLVESGGGLVQPGGSLRLSCAASGFTFSRYDMHWVRQGTGKGLEWVSAIGTSGDTYYPDSVKGRFTISRENAKNSLYLQMNSLRAGDTAVYYCARGGLQTTTWLFDYWGQGTLVTVSS chain 2: DIQMTQSPSSLSASVGDRVTITCRASQSISRYLNWYQQKPGKAPKLLIYAASSLQSGVPSRFSGSGAGTDFTLTISSLQPEDFAIYYCQQSYSNPPITFGQGTRLEIK", "ELISA binding EC50": 2.26}, {"binder": "C854 (protein) chain 1: EVQLVESGGGLIQPGGSLRLSCAASGITVSSNYMNWVRQAPGKGLEWVSVLYAGGSTFYADSVKGRFTISRDDSKNTLYLQMDSLRAEDTAVYYCARDLSSSGGFDYWGQGTLVTVSS chain 2: EIVLTQSPGTLSLSPGERATLSCRASQSVSSSYLAWYQQKPGQAPRLLIYGASSRATGIPDRFSGRGSGTDFTLTISRLEPEDFAVYYCQQYGSLYTFGQGTKLEIK", "ELISA binding EC50": 2.57}, {"binder": "C1058 (protein) chain 1: EVQLVESGGGLVQPGGSLRLSCAASGIIVSSNYMNWVRQVPGKGLEWVSVLYSGGSTFYADSVRGRFTISRDNSKNTLFLQMNSLRPEDTAVYYCARDFREGAFDIWGQGTMVTV chain 2: DIQLTQSPSFLSASVGDRVTITCRASQGISSYLAWYQQKPGKAPNLLIYAASTLQSGVPSRFSGSGSGTDFTLTISSLQPEDFATYYCQQLNSYSPLFGQGTRLEIK", "ELISA binding EC50": 2.13}, {"binder": "C1059 (protein) chain 1: EVQLVESGGGLVQPGGSLRLSCAASGVTVSYNYMHWVRQAPGKGLEWVSVFFPGGSIFYADSVKGRFSISRDNSHNTLYLQMNNLRPEDTAVYYCARDFREGAIDLWGQGTMVTVSS chain 2: DIQLTQSPSFLSASVEDRVTITCRASQGISSYLAWYQQKPGKAPKLLIYGASTLQSGVPSRFSGSGSGTEFTLTISSLQPEDSATYYCQQLNSYPPLFGQGTRLEIK", "ELISA binding EC50": 1.69}, {"binder": "C1052 (protein) chain 1: QVQLVQSGAEVKKPGASVKVSCKVSGYTLSELSMHWVRQAPGEGLEWLGGFDPEDGETINAQKFQGRVTMTEDRSTDTAYMELSSLRSEDTAVYYCATRGRYCSSGNCYYHHWGQGTLVTVSS chain 2: DIQMTQSPSTLSASVGDRVIITCRASQNIHNWLAWYQQKPGKAPKLLIYKASSLESGVPSRFSGSGSGTEFTLTISSLQPDDFATYFCQQYHSYSWTFGQGTKVEIK", "ELISA binding EC50": 2.64}, {"binder": "C1065 (protein) chain 1: EVQLVESGGGLIQPGGSLRLSCAASGFTVSRNYMSWVRQAPGKGLEWVSVIYSGGSTFYADSVKGRFTISRDNSKNTLYLQMNSLRAEDTAVYYCARGLPTGEGWNYFDYWGQGTLVTVSS chain 2: QSALTQPASVSGSPGQSITISCTGTSSDIGGYHYVSWYQQHPGKAPKLMIYDVSNRPSGISNRFSGSKSGNTASLTISGLQAEDEADYYCSSYASSSVIFGGGTKLTVL", "ELISA binding EC50": 3.52}]}]}
